The text below walks through data of the supplement of paper PMC10986608.

This is one part of the list. Most values come without repeats; read them as rough.

This assay relates to Candida albicans DPL-15. Put plainly: growth (OD600) after compound treatment (apparently relative to screen median) (relative growth (fraction; screen median 1.02)); DPL-15 is a caspofungin-resistant clinical isolate; higher = more fungal growth (less antifungal activity). Particulars: 25 µM; RPMI 1640; 48 h; 30 °C.
Turning to `COC(=O)[C@H]1[C@@H](c2ccccc2)[C@]2(c3ccc(OC)cc3)Oc3cc(OC)cc(OC)c3[C@@]1(O)C2=O`, the growth is 1.13.

Consider `CCOc1cc2c(cc1OCC)C[NH2+]CC2`, for which the growth is 1.26. Regarding `CC(C)(C)NS(=O)(=O)OCC(Cl)(Cl)Cl`, the growth was determined as 1.11. On to `C[C@]12CC[C@H](OS(=O)(=O)Nc3cccc(Cl)c3)C[C@@H]1CC[C@@H]1[C@@H]2CC[C@]2(C)C(=O)CC[C@@H]12`, for which the growth was determined as 1.14.

In the case of `CCCCCCCCC(=O)NCc1ccc(O)c(OC)c1`, the growth came out at 0.779. Turning to `COc1ccc([C@@]23Oc4cc(OC)cc(OC)c4[C@@]24NC(C2CC2)=N[C@@]4(O)[C@H](C(=O)N(C)OC)[C@H]3c2ccccc2)cc1`, the growth was 1.02. On to `O=C1CN=C(c2ccccc2)c2ccccc2N1`, for which the growth is 1.02. With `COC(=O)[C@@H]1[C@@H](O)[C@@]2(O)c3c(OC)cc(OC)cc3O[C@@]2(c2ccc(Br)cc2)[C@H]1c1ccccc1` the figure was 0.892. `COC(=O)[C@@H]1[C@@H](c2ccccc2)C2(c3ccc(OC)cc3)C(=O)C1(O)c1ccccc1N2C` (stereo partly drawn): the growth came out at 0.961. On to `CONC(=O)[C@H]1[C@@H](O)[C@@]2(O)c3c(OC)cc(OC)cc3O[C@@]2(c2ccc(OC)cc2)[C@@H]1c1ccccc1`, for which the growth worked out at 0.958.

As to `CCOc1ccccc1-c1nc2c(c(=O)[nH]1)[C@@H](c1ccccc1)[C@]1(c3ccc(OC)cc3)Oc3cc(OC)cc(OC)c3[C@]21O`, the growth stood at 1.04.

`COc1ccc([C@@]23Oc4cc(OC)cc(OC)c4[C@]2(O)c2nc(-c4cnccn4)[nH]c(=O)c2[C@H]3c2ccccc2)cc1`: the growth was 1.95. Take `COc1ccc(-c2nc3c(c(=O)[nH]2)[C@@H](c2ccccc2)[C@]2(c4ccc(OC)cc4)Oc4cc(OC)cc(OC)c4[C@]32O)cc1`: the growth was determined as 0.915. Take `COC(=O)[C@@H]1[C@@H](c2ccccc2)[C@]2(c3ccc(OC)cc3)Oc3cc(OC)cc(OC)c3[C@@]1(O)[C@@H]2O`: the growth worked out at 1.1. For the compound `COc1ccc([C@]23Oc4cc(OC)cc(OC)c4[C@]24NC(C)=N[C@]4(O)[C@@H](C(=O)N(C)OC)[C@@H]3c2ccccc2)cc1`, the growth was found to be 1.09. Turning to `COc1ccc([C@@]23Oc4cc(OC)cc(OC)c4[C@]2(O)c2nc[nH]c(=O)c2[C@H]3c2ccccc2)cc1`, the growth was determined as 1.03.

As for `COC(=O)[C@@H]1[C@@H](c2ccccc2)[C@]2(c3ccc(OC)cc3)Oc3cc(OC)cc(OC)c3[C@@]1(O)[C@H]2O`, the growth turned out to be 0.975.

As for `CO[C@H](c1ccccc1Br)[C@H](C)/C=C/[C@]1(C(=O)O)[C@@H]2c3ccccc3N(C(=O)OC(C)(C)C)[C@@H]21`, the growth came out at 1.11. Turning to `COC(=O)[C@H]1C(=O)[C@@]2(O)c3c(OC)cc(OC)cc3O[C@@]2(c2ccc(OC)cc2)[C@@H]1c1ccccc1`, the growth was found to be 0.888. Take `CCCc1c(Cl)c2c(OC)c3c(c(O)c2c(=O)n1C)-c1c(c(OC)c2oc(=O)c4c(O)ccc(O)c4c2c1O)CC3`: the growth amounted to 0.877.

For `CONC(=O)[C@@H]1[C@@H](O)[C@@]2(O)c3c(OC)cc(OC)cc3O[C@@]2(c2ccc(Br)cc2)[C@H]1c1ccccc1`, the growth stood at 0.898. In the case of `COc1ccc([C@@]23Oc4cc(OC)cc(OC)c4[C@@]24NC(C)=NC4=C(C=O)[C@H]3c2ccccc2)cc1`, the growth is 1.09. With `COc1ccc([C@@]23Oc4cc(OC)cc(OC)c4[C@]2(O)c2nc4n(c(=O)c2[C@H]3c2ccccc2)CCC4)cc1` the figure was 1.05.

In the case of `COC(=O)[C@H]1[C@@H](c2ccccc2)[C@]2(c3ccc(Br)cc3)Nc3cc(OC)cc(OC)c3[C@@]1(O)[C@H]2O`, the growth turned out to be 0.958. With `COc1ccc([C@@]23Oc4cc(OC)cc(OC)c4[C@]2(O)c2nc(C(C)C)[nH]c(=O)c2[C@H]3c2ccccc2)cc1` the figure was 1.11; with `c1c2c(cc3c1OCO3)C[NH2+]CC2`, 1.16; with `CCOC(=O)COc1nc(-c2ccccc2)nc2c1[C@@H](c1ccccc1)[C@]1(c3ccc(OC)cc3)Oc3cc(OC)cc(OC)c3[C@]21O`, 1.08. With `CO[C@@H]1[C@H](O)CC[C@]2(O)CN(CCc3c[nH]c4ccccc34)[C@@H](CC=C(C)C)[C@](C)(O)[C@@H]12` the figure was 1.09; with `COC(=O)[C@@H]1[C@@H](c2ccccc2)[C@]2(c3ccc(Br)cc3)C(=O)[C@@]1(O)c1c(OC)cc(OC)cc1N2C`, 0.847; with `COc1ccc([C@@]23Oc4cc(OC)cc(OC)c4[C@@]24NC(C)=N[C@@]4(O)[C@H](C(=O)N(C)OC)[C@H]3c2ccccc2)cc1`, 0.931. Take `COC(=O)[C@@H]1[C@@H](c2ccccc2)[C@]2(c3ccc(OC)cc3)Oc3cc(OC)cc(OC)c3[C@@]23N=C(C2CC2)N[C@@]13O`: the growth was 1.09. On to `COC(=O)[C@H]1[C@H](c2ccccc2)[C@]2(c3ccc(OC)cc3)Oc3cc(OC)cc(OC)c3[C@@]1(O)C2O` (stereo partly drawn), for which the growth amounted to 1.28. For the compound `COC(=O)[C@H]1[C@@H](O)[C@@]2(O)c3c(OC)cc(OC)cc3O[C@@]2(c2ccc(Br)cc2)[C@@H]1c1ccccc1`, the growth was determined as 1.14. On to `COC(=O)C1=C(O)c2ccoc2[C@@]2(C)CCC[C@H]1C2`, for which the growth was 1.02. Next, `COC(=O)[C@H]1[C@H](c2ccccc2)[C@@]2(c3ccc(Br)cc3)Oc3cc(OC)cc(OC)c3[C@]1(O)[C@H]2O`: 1.11; `COC(=O)[C@@H]1[C@@H](c2ccccc2)[C@@]2(c3ccc(OC)cc3)C(=O)[C@]1(O)c1ccccc1N2C`: 1.07. As to `COc1ccc([C@@]23Oc4cc(OC)cc(OC)c4[C@]2(O)c2nc(-c4ccc(Cl)cc4)[nH]c(=O)c2[C@H]3c2ccccc2)cc1`, the growth was found to be 1.01.

For `COC(=O)[C@H]1[C@@H](O)[C@@]2(O)c3c(OC)cc(O)cc3O[C@@]2(c2ccc(OC)cc2)[C@@H]1c1ccccc1`, the growth is 1.07. For the compound `COc1cc(OC)c2c(c1)O[C@@]1(c3ccc(Br)cc3)[C@H](c3ccccc3)C[C@@H](O)[C@@]21O`, the growth stood at 0.709. Take `COc1ccc([C@]23Oc4cc(OC)cc(OC)c4[C@@]2(O)c2nc4n(c(=O)c2[C@@H]3c2ccccc2)CCC4)cc1`: the growth is 1.04.

Turning to `c1c2c(cc3c1OCCO3)CNCC2`, the growth was determined as 0.969.

Take `COc1ccc([C@]23Oc4cc(OC)cc(OC)c4[C@](O)([C@H](c4ccccc4)[C@H]2C(=O)NCCCCNC(=O)c2ccccc2)[C@H]3O)cc1`: the growth is 0.978.

Consider `COC(=O)C1c2c(n(C)c3ccccc23)[C@H]2[C@@H](C)[C@H](OC)c3ccccc3[C@@H]12` (stereo partly drawn), for which the growth stood at 1.14.

For the compound `N#Cc1ccc(C(=O)COC(=O)c2ccccc2N)cc1`, the growth is 1.1. For `COc1ccc([C@@]23Oc4cc(OC)cc(OC)c4[C@]2(O)c2nc(-c4ccc(C(F)(F)F)cc4)[nH]c(=O)c2[C@H]3c2ccccc2)cc1`, the growth stood at 1.13. As for `COc1ccc([C@@]23Oc4cc(OC)cc(OC)c4[C@]2(O)c2nc(-c4ccc(F)cc4)[nH]c(=O)c2[C@H]3c2ccccc2)cc1`, the growth amounted to 1.11.

As to `C=C[C@H]1C[N@]2CC[C@H]1C[C@H]2[C@H](OS(N)(=O)=O)c1ccnc2ccc(OC)cc12`, the growth was 1.12. Turning to `CCOP(=O)(OCC)O/C(C=C(C)C)=C1/CCC2OC2(CC=C(C)C)C1=O` (stereo not drawn), the growth worked out at 1.04. For the compound `COCc1nc2c(c(=O)[nH]1)[C@@H](c1ccccc1)[C@]1(c3ccc(OC)cc3)Oc3cc(OC)cc(OC)c3[C@]21O`, the growth is 1.05.

Turning to `COc1ccc(-c2nc3c(c(=O)[nH]2)[C@H](c2ccccc2)[C@@]2(c4ccc(OC)cc4)Oc4cc(OC)cc(OC)c4[C@@]32O)cc1`, the growth stood at 0.831.

As to `COC(=O)[C@H]1[C@@H](c2ccccc2)C2(c3ccc(OC)cc3)Oc3cc(OC)cc(OC)c3[C@@]1(O)C2=O`, the growth stood at 0.923.

For the compound `CCCCC1=N[C@@]2(O)[C@H](C(=O)OC)[C@@H](c3ccccc3)[C@]3(c4ccc(OC)cc4)Oc4cc(OC)cc(OC)c4[C@]23N1`, the growth was determined as 0.994. With `COCC1=N[C@@]2(O)[C@H](C(=O)OC)[C@@H](c3ccccc3)[C@]3(c4ccc(OC)cc4)Oc4cc(OC)cc(OC)c4[C@]23N1` the figure was 0.759. With `COc1ccc(OC)c2c1CCNC2` the figure was 1.22. Take `COc1ccc([C@]23Oc4cc(OC)cc(OC)c4[C@@]2(O)[C@@H](O)C[C@@H]3c2ccccc2)cc1`: the growth stood at 1.04. For the compound `COC(=O)[C@@H]1[C@@H](c2ccccc2)[C@]2(c3ccc(OC)cc3)Oc3cc(OC)cc(OC)c3[C@@]23N=C(C)N[C@@]13O`, the growth worked out at 0.952. Regarding `COC(=O)C1C(=O)c2ccoc2C12CCCCC2` (stereo not drawn), the growth was found to be 1.13.

`COC(=O)[C@@H]1[C@@H](c2ccccc2)[C@@]2(c3ccc(Br)cc3)C(=O)[C@]1(O)c1c(OC)cc(OC)cc1N2C`: the growth stood at 0.979.
